Assay results as given in paper PMC8427838.
These are yes or no findings as the source states them, for the method shown. In cells and extracts the contact can be indirect. Some binding calls cover weakened binding; strength is not graded here. For part of these data: Where a sequence is shown, tags or fusion partners need not be part of it.

By UniProt entry, the sequences of proteins in these tests, tags left out. Where a name states a change or a piece, a line headed by the entry shows the natural chain unless it says otherwise. Chains listed by the source or under a name are the forms on record and can include a tag or linker. Residues count along the entry.
UniProt P26038: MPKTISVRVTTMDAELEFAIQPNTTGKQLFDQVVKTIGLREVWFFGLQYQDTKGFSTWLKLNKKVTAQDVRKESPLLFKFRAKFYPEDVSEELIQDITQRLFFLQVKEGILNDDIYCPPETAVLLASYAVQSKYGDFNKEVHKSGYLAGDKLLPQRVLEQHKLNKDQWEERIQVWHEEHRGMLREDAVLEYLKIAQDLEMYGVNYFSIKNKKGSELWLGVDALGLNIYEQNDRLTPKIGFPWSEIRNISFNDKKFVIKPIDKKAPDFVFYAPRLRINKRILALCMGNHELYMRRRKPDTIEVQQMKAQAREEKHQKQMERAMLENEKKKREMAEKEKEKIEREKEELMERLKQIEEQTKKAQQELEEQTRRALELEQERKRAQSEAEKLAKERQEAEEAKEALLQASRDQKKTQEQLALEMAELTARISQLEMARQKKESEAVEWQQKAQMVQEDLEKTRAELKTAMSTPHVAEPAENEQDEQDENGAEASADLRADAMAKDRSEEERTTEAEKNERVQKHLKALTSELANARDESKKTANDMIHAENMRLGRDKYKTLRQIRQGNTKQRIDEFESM
GST-FERM-moesin (N-terminal FERM domain of moesin fused to GST): residues 2-295 of P26038
UniProt P15311: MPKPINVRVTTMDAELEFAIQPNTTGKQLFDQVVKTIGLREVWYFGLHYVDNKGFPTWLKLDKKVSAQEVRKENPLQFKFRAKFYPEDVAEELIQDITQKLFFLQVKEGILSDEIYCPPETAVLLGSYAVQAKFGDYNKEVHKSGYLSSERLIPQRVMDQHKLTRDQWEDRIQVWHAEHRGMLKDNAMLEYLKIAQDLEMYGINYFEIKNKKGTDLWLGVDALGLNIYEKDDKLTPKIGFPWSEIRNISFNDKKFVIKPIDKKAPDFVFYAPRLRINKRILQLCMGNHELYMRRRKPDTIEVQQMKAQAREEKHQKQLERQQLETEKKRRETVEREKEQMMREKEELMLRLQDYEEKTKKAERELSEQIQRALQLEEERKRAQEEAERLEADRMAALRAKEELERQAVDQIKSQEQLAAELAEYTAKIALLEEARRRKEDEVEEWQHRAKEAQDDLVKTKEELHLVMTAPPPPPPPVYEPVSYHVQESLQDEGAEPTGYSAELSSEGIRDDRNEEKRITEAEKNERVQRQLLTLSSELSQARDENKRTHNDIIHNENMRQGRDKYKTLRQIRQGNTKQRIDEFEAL

B1: TMIGD1-Myc (protein, UniProt Q6UXZ0 30-262)
chain: VLTVNGKTENYILDTTPGSQASLICAVQNHTREEELLWYREEGRVDLKSGNKINSSSVCVSSISENDNGISFTCRLGRDQSVSVSVVLNVTFPPLLSGNDFQTVEEGSNVKLVCNVKANPQAQMMWYKNSSLLDLEKSRHQIQQTSESFQLSITKVEKPDNGTYSCIAKSSLKTESLDFHLIVKDKTVGVPIEPIIAACVVIFLTLCFGLIARRKKIMKLCMKDKDPHSETAL

Key:
[1] = molecular target: T1, GST-TMIGD1 (GST fusion of the cytoplasmic domain of human TMIGD1) (human) (UniProt Q6UXZ0); assay: pull-down; immobilised GST fusion proteins incubated with normalized whole-cell lysates of HEK-293 cells, rocking 3 h at 4 °C; western blot (anti-GFP or anti-Myc); only the target purified
T1 sequence: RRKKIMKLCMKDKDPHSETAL

[2] = molecular target: T2, GST-4A-TMIGD1 (GST fusion of the TMIGD1 cytoplasmic domain with R242, R243, K244, K245 mutated to alanine) (human) (UniProt Q6UXZ0); assay: as above
T2 sequence: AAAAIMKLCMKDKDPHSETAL

[3] = molecular target: T3, TMIGD1 expressed in 786-0 cells (human) (UniProt Q6UXZ0); assay: co-IP; whole cell lysates of 786-0 cells expressing EV or TMIGD1 immunoprecipitated with anti-TMIGD1 antibody; western blot with anti-moesin antibody
T3 sequence: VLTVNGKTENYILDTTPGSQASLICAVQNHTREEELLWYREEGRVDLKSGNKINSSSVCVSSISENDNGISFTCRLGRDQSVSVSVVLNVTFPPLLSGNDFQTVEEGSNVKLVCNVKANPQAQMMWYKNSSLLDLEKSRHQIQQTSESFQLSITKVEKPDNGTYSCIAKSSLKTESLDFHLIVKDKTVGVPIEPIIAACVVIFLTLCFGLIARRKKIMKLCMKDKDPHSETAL

[4] = molecular target: GST-FERM-moesin (N-terminal FERM domain of moesin fused to GST) (human) (UniProt P26038); assay: pull-down; immobilised GST fusion proteins incubated with normalized whole-cell lysates of HEK-293 cells, rocking 3 h at 4 °C; western blot (anti-GFP or anti-Myc); only the target purified

Molecule	binding [1]	binding [2]	binding [3]	binding [4]
ezrin-GFP (from UniProt P15311 1-586)	binds	no binding		
moesin (endogenous, 786-0 renal carcinoma cells) (from UniProt P26038 1-577)			binds	
moesin-GFP (from UniProt P26038 1-577)	binds	no binding		
B1				binds
